According to PubChem BioAssay (NCI):
“And” between values parts separate entries of the source, which are not always exact repeats. Equal values may be shown once.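 In this assay, cells in 96-well plates receive the compound at five concentrations for 48 hours. Endpoints are linearly interpolated between the surrounding concentrations. GI50 is the concentration that inhibits growth by half. TGI marks complete inhibition of growth.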

Test system: NCI-H322M lung
Assay: NCI tumour cell line growth inhibition, 48 h

Structure (SMILES)	TGI [µM]	GI50
CN(/N=C/c1ccccn1)C1=NCCCN1	> 100	–
COc1cc([C@@H]2c3cc4c(cc3[C@@H](OC(=O)c3cccc(N)c3)C3COC(=O)[C@@H]32)OCO4)cc(OC)c1O (stereo partly specified)	> 100	–
CCC(=O)N1C/C(=C/c2ccc(Br)cc2)C(=O)/C(=C/c2ccc(Br)cc2)C1	8.11	2.6 µM
COc1ccc(OC)c(/C=C2\CCc3ccccc3C2=O)c1	51.3	–
COc1ccc(-c2csc(Cc3nc4c(Br)cc(Br)cc4c(=O)n3-c3ccc(OC)cc3)n2)cc1	> 100	–
COc1cc2c(c(OC)c1OC)-c1ccc(SC)c(=O)cc1[C@@H](NC(=O)C(F)(F)F)CC2	11.3	–
CC(C)(C)OC(=O)[C@@H]1ON2O[C@H](OC3CCCC3(c3ccccc3)c3ccccc3)C[C@H]3OC(=O)[C@@H]1[C@H]32 (stereo partly specified)	> 100	–
N#Cc1ccc(Oc2ccccc2)cc1C#N	> 100	–
O=C1C=C2CCCC2C(C(=O)O)(C(=O)O)C1 (stereo unspecified)	> 100	–
CCCCSCC(NC(=O)/C=C/c1c(C)[nH]c(=O)[nH]c1=O)C(=O)OC (stereo unspecified)	269	–
c1ccc2c(c1)Cc1c(Cc3csc4ccccc34)ccc3cccc-2c13	> 100	–
CC(=O)/C(Br)=C/c1ccc(Br)o1	32.8	16.9 µM
CCOC(=N)CC(=O)Nc1ccccc1	> 46.4	–
Cc1c2ccncc2c(C)c2c1sc1ccccc12	70	–
Cc1ccc(N=C2N=C(N3CC(C)OC(C)C3)c3ccccc32)cc1 (stereo unspecified)	86.7	–
COC(=O)Cc1c([C@H]2[C@H](CC(=O)OC)c3ccccc3N2S(=O)(=O)c2ccc(C)cc2)[nH]c2ccccc12	> 100	–
C/C(=N\Nc1nc2ccccc2[nH]1)c1cnccn1	> 74.8	–
CCC1(CC)N=C(C(F)(F)F)c2cc(C(=O)C(F)(F)F)c3ccccc3c2N1	> 100	–
C[n+]1c2ccccc2c(CNCC(=O)O)c2ccccc21	23	–
COc1ccc(OC)c(NC(=O)C(=O)CC(=O)c2sc(-n3nc(-c4ccccc4)cc3-c3ccccc3)nc2C)c1	> 100	–
Nc1ncc(C=O)c(NCC2(CO)CCC2)n1	> 100	–
C=CCNC1=C2C[C@@H](C)C[C@H](OC)[C@H](O)[C@@H](C)/C=C(\C)[C@H](OC(N)=O)[C@@H](OC)/C=C\C=C(/C)C(=O)NC(=CC1=O)C2=O	21	–
COc1cc([N+](=O)[O-])c(S(=O)(=O)O)cc1-n1nc(C(=O)Nc2ccccc2)n[n+]1-c1cc(S(=O)(=O)[O-])c([N+](=O)[O-])cc1OC	> 100	–
COc1ccc(-c2oc3cc(OC(C)=O)cc(OC(C)=O)c3c(=O)c2OC)cc1	73.1	–
CCCCCCCCCCNCCSS(=O)(=O)O	6.48	2.68 µM
COC1=C2CC(C)CC(OC)C(OC(=O)CN)[C@H](C)/C=C(\C)C(OC(N)=O)C(OC)/C=C\C=C(/C)C(=O)NC(=CC1=O)C2=O (stereo partly specified)	25.3	–
CC(NC1=CC(=O)c2cccnc2C1=O)C(O)c1ccccc1 (stereo unspecified)	7.21	–

Structure (SMILES)	TGI [µM]	GI50
CC(=O)Oc1c2ccsc2c(OC(C)=O)c2ccsc12	2.37	–
COc1cc2cc3c4c(cc(OC)c(OC)c4c2cc1OC)CCN3C	> 50	–
O=C(Nc1cc(F)c(F)cc1C(=O)O)c1ccc(-n2ccnc2)nn1	> 100	> 100 µM
CNC(=O)c1c(F)cccc1Nc1nc(Nc2cc3c(cc2OC)CCN3C(=O)CN(C)C)nc2[nH]ccc12	26.2	6.73 µM
CC1C=CC(C(N)C(=O)O)O1 (stereo unspecified)	> 100	–
CCN(CC)c1ccc(-c2cc(-c3cc(OC)c(OC)c(OC)c3)nc(N3CCC(O)CC3)c2C#N)cc1	> 81.3	1.11 µM
C[N+](C)(C)c1cc[c]([Sn]([c]2ccc([N+](C)(C)C)cc2)([c]2ccc([N+](C)(C)C)cc2)[c]2ccc([N+](C)(C)C)cc2)cc1	> 100	> 100 µM
NC(CCP(=O)(O)O)C(=O)O (stereo unspecified)	> 100	–
S=C(N/N=C/c1ccccn1)N1CC2CCC(CC2)C1	10.7	–
c1ccc(-c2c(-c3cccs3)[nH]c(-c3cccs3)c2-c2ccccn2)nc1	> 100	–
CCOC(=O)c1[nH]c2cc(OC)c(OC)cc2c1CN(C)C	> 100	–
CC(=O)c1ccccc1NC(=O)C(=O)C(C(=O)c1ccccc1-c1ccccc1)C1OC(=O)c2ccccc21 (stereo unspecified)	79.5	–
Cn1c(=O)cc2[nH]c3ccccc3n2c1=O	> 100	–
CC1=CP(=O)(c2ccccc2)C=C(C)C1=C(Cl)Cl (stereo unspecified)	18.6	–
COc1ccc(N=Nc2ccc3oc(=O)c(C(=O)Nc4ccccc4C)cc3c2)cc1	> 10	–
CCCc1nc(Cl)c(Cl)c(Cl)n1	26.5	–
Nc1cc2ncnn2c(SCC(=O)N/N=C/C(Br)=C\c2ccccc2)n1	89.4	–
CC(=O)Nc1cc2cc(NS(=O)(=O)c3ccc(Cl)c(Cl)c3)ccc2oc1=O	> 100	–
c1ccc2c(c1)c1c3c(c4c(n32)=NCCN4)CCC1	> 100	–
CC[C@H](C)[C@H](NC(=O)[C@H]1CCCCN1C)C(=O)N(C)[C@H](C[C@@H](OC(C)=O)c1cccc(C(=O)N[C@@H](Cc2ccccc2)C[C@H](C)C(=O)O)n1)C(C)C	> 25	0.00486 µM and 0.0025 µM
O=[N+]([O-])c1ccc2sc(/C=N/c3ccccn3)cc2c1	> 100	–
O=C1c2ccccc2C(=O)c2c(NC(=O)C3CC3)ccc(NC(=O)C3CC3)c21	> 100	–
C#CC1(O)C(COP(=O)(O)OCC2OC(n3cc(F)c(=O)[nH]c3=O)CC2O)OC(n2ccc(N)nc2=O)C1O (stereo unspecified)	–	< 0.0109 µM
Cc1ccc(S(=O)(=O)N/N=C2\CCCCCCCCCCC2CN(C)C)cc1 (stereo unspecified)	48.1	–
Nc1cccc(OCC2CCCN3CCCCC23)c1 (stereo unspecified)	30.2	–
Oc1ccc(C(O)(c2ccccc2)c2ccccc2)c2ccccc12	6.86	–
